# Assay results as given in the supplement of paper PMC3334620.
# In all, about 33,000 sequences were measured (“E-score (-0.5 to 0.5)”: median about -0.021, highest 2% from about 0.32 on). The list shows a part of the results.
# Biological target: T1, Zap1 (UniProt P47043)
# T1 sequence: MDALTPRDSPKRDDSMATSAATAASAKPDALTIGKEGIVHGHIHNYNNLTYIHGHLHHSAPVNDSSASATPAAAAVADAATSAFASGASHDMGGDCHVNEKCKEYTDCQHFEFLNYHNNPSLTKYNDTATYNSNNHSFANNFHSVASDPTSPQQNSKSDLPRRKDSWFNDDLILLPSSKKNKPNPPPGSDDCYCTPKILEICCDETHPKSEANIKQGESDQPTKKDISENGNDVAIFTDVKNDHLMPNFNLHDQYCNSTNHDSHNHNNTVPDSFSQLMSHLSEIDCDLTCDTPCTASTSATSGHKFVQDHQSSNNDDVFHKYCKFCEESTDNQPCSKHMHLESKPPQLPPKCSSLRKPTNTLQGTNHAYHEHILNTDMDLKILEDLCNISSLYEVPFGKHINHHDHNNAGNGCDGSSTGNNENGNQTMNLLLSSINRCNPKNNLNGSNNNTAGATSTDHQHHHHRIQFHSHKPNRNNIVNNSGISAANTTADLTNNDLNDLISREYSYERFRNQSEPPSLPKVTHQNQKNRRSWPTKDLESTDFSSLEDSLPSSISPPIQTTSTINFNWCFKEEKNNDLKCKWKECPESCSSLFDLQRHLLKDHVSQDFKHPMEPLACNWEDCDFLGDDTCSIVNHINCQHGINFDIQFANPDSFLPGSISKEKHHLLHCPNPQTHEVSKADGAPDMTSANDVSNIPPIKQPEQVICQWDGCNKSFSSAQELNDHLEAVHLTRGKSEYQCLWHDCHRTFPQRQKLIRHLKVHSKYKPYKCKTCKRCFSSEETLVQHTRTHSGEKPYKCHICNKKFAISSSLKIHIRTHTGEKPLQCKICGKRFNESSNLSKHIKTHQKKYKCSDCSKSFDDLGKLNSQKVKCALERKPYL
# Assay: PBM E-score (8-mer binding enrichment) (E-score (-0.5 to 0.5)); higher = stronger / more preferred TF binding; most listed sequences are background and not binding sites
# Settings: protein concentration: 200 nM; construct: GST-full length
# Summary of the method: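 E-scores (a modified Wilcoxon-Mann-Whitney statistic) were assigned by the Universal PBM Analysis Suite to every ungapped eight-base word pooled with its reverse complement. The input came from universal all-10-mer Agilent arrays made double-stranded by primer extension and probed with GST-tagged yeast transcription factors at about 100-200 nM. Fluorescent anti-GST detected bound protein, and masliner normalised the scans.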
row,Sequence,PBM E-score
1,CGCGTGAA,0.0743
2,GAACTGGA,0.0668
3,TATGAAAA,0.21
4,ATGGTCAG,0.216
5,AGGATTAA,-0.0423
6,ATGATTTC,0.0431
7,ATCCTGGA,0.00083
8,GGTCCATA,0.0734
9,GTGAAACA,0.097
10,CCCCCAGG,-0.027
11,CGACATTA,-0.0353
12,GTAGCCTA,-0.0051
13,CGTAAAAC,0.158
14,GTAGCGAC,-0.13
15,GCATTGAA,-0.0007
16,AGCCAGAC,-0.0808
17,AGGTAGTC,0.147
18,GGCCTAGA,-0.18
19,ACTCTGAC,0.00453
20,ACTCATCG,-0.17
21,GACAGGAC,-0.0567
22,CGTGTCCC,-0.0698
23,GGCCAGGA,-0.161
24,ACACCCAT,0.11
25,CATCTTTC,-0.0278

row,Sequence,PBM E-score
1,AACTTACA,0.0201
2,CATAAATG,-0.0543
3,GCTAACGA,-0.0629
4,AAATGTCC,-0.188
5,AAATTCCC,-0.229
6,AATGGCGT,-0.0145
7,GCGCTACA,-0.113
8,GGGGGATA,-0.177
9,AAGTAAGA,0.0484
10,AAGGCACG,-0.121
11,ATATAGAT,0.131
12,GTCGTGTA,0.0536
13,AACCCACG,0.156
14,AGGTTGGG,0.232
15,CCGTCAAC,-0.157
16,AATCCACA,0.0186
17,CACCCCAG,0.118
18,AATATCCA,0.124
19,AGTATGAC,0.0472
20,TCACCCCA,0.249
21,AAAATGTG,-0.0329
22,CCGTGATA,0.0343
23,GCGATGAC,0.0689
24,GAGTGGAC,-0.0822
25,GATTTCCA,0.012

row,Sequence,PBM E-score
1,ATAGCTGA,-0.0341
2,AAACCAGG,0.162
3,ACCCTCAC,0.251
4,GGAAGATA,0.0199
5,CGCACCTC,-0.145
6,AAGCTAGA,-0.137
7,CAGTTGCA,-0.107
8,GTAGCAAA,-0.0914
9,CATGTTAC,-0.019
10,TAGCGTCA,-0.097
11,CCGGCCGA,0.0494
12,CCATAGCC,-0.159
13,CAGCCCCG,-0.0674
14,CACTCTTC,-0.159
15,ATCGGCAT,0.0012
16,GTTAATGA,0.135
17,CGACAGCC,-0.215
18,AAGACATC,-0.199
19,CACGCAGG,0.0824
20,CAACCCGG,0.213
21,ATAGTAAA,0.105
22,TGATCAAA,0.0723
23,GAAATAGC,0.103
24,AACCGCCA,0.148
25,CGTTACCC,0.258

row,Sequence,PBM E-score
1,CTGCGGCA,-0.251
2,CCAGTCAC,-0.194
3,GTTTCAGA,-0.104
4,GACGTACA,0.00824
5,ACCCAAGA,0.152
6,AGAGAGTC,-0.0905
7,AGCGAGCC,-0.0795
8,CCGTCGGC,-0.154
9,AAAATTGC,0.0619
10,CATCGAGA,-0.112
11,CGACCGAG,-0.21
12,GTGGGAGA,-0.362
13,CAACTTGC,-0.24
14,CAATGGTG,-0.183
15,ATGGTTCC,0.21
16,CGCGCACA,-0.098
17,AAAATGTC,0.0833
18,AGCTCTGG,-0.154
19,ACTCCGAC,-0.0586
20,ATGCTAAC,0.0482
21,CCACCTAA,-0.00966
22,AGACCGCT,-0.00371
23,ACGGGTGG,0.198
24,CATAACAA,0.179
25,CTCAGAAG,0.0412

row,Sequence,PBM E-score
1,GTGGGCAA,-0.0918
2,AAGTCGCC,-0.16
3,CAGGCAAA,-0.062
4,GCGCTAAC,0.0801
5,ATCGGAAC,0.0373
6,ACCCCACG,0.216
7,CCTGGACC,0.0191
8,ACGTCTAC,-0.0979
9,CCAGAGCG,-0.297
10,AAATCCCC,-0.0456
11,CTAACTAA,0.0584
12,ATGCTCGC,-0.245
13,AGCCTGAA,-0.117
14,AACTTGGC,-0.0515
15,ACTGACGG,-0.0593
16,ACTCCCTC,-0.107
17,ACCATTGG,0.176
18,GACGCATA,-0.126
19,AACGCCTA,-0.0435
20,ACACACTC,-0.0362
21,CATGAATA,0.0386
22,CATCGACA,-0.0208
23,ATCACACA,0.164
24,AAGTGTGG,0.0823
25,GGAGCGGA,-0.221

row,Sequence,PBM E-score
1,AGGCCTGC,-0.253
2,AGTCCTCG,-0.272
3,CGGGAACG,-0.266
4,ACCCCGAG,0.137
5,AGCAGCGC,-0.225
6,GGTGAGTA,-0.0185
7,AGTAGCAA,-0.124
8,CAAAACCC,0.349
9,AGACCCAA,0.219
10,CGCGCCAC,-0.047
11,CACTCATC,-0.0653
12,CCAGCGTC,-0.259
13,GTGCGAAA,0.0725
14,GTGGAAAA,0.0185
15,AGACCACG,-0.0124
16,AAACAAGA,0.146
17,AGGACTTC,-0.167
18,CATCTTCG,-0.0684
19,GTCACTGA,0.0804
20,ATTTCACA,0.0724
21,ATTCTGAG,0.0121
22,TATTGTCA,0.125
23,ACATGCCT,-0.137
24,ACCGCCGA,0.0525
25,CTTACAAA,0.0824

row,Sequence,PBM E-score
1,GAGATCCA,-0.0613
2,GACAATGC,-0.0612
3,CGCGATCC,-0.0353
4,ACGGTGCG,-0.0395
5,GTCAATTA,-0.00385
6,ACACGAAA,0.1
7,TAGTTATA,0.22
8,GGCAACAA,0.0441
9,AGAGATTC,-0.107
10,AATTCCGA,0.0544
11,AGATCTGG,-0.152
12,AACGGAGC,-0.327
13,GGCTGCCA,-0.00635
14,CCCCGTAC,-0.133
15,AAGTCACT,-0.203
16,CACACGTC,-0.206
17,ACTCCCGG,-0.0926
18,CAGATGTC,-0.0749
19,GATGGAGA,-0.0408
20,CTCAGCTC,-0.128
21,CCTCCCTA,-0.0703
22,GAGGAAGC,-0.301
23,ATGACAGC,-0.0168
24,CTCTACCC,0.181
25,CTTTAAGC,0.0702

row,Sequence,PBM E-score
1,CTCGATCC,-0.0316
2,ACGGGGCC,-0.0272
3,CGACCAAC,-0.0546
4,AATACTAG,0.264
5,GGGAACAC,-0.0487
6,AAGATCTC,-0.127
7,TCATCAGA,-0.0384
8,ACCCATGC,0.15
9,AGACACCG,-0.0664
10,GGTGGTAC,0.284
11,TATTTCGA,0.306
12,AACCAACG,0.104
13,CGGATTGC,-0.0159
14,CACTTCAC,-0.209
15,AGCGCAAC,-0.0903
16,CCATTCCG,-0.258
17,ATGTTCTG,-0.126
18,TCAAACAA,0.0626
19,CTTTGAAC,0.0221
20,AAGTCAAG,-0.231
21,CGGTCGAA,-0.076
22,GCATTAGC,-0.151
23,GGACCTCC,-0.134
24,ATTCTCCC,-0.16
25,CAGTCTGA,-0.0859

row,Sequence,PBM E-score
1,ACAGAGTA,-0.0251
2,ATCGCCTA,-0.325
3,GGGTACCA,0.4
4,AATAAGGC,-0.214
5,GAGAAATA,0.047
6,ATCCAGAA,0.159
7,ATTAAGAA,0.00585
8,CAGTCAGA,-0.0612
9,ACAGAGCT,-0.289
10,CCGGGGGC,-0.141
11,CCGTATAA,0.124
12,ACGTTTTA,0.0733
13,GACTATAC,-0.0051
14,TACCTTAA,0.296
15,ACAAATAG,0.0187
16,CACCCCAA,0.17
17,CCCGTTTA,-0.0317
18,CCCTGCCA,-0.00313
19,CCAGGCAG,-0.216
